# The BET-seq Pho4 binding data (Le et al. 2018)
# The other results are listed elsewhere or left out. The energies were worked out here from pooled read counts, against the library average; single values are noisy.
# Target: T1, Pho4 (S. cerevisiae) (UniProt P07270)
# T1 sequence: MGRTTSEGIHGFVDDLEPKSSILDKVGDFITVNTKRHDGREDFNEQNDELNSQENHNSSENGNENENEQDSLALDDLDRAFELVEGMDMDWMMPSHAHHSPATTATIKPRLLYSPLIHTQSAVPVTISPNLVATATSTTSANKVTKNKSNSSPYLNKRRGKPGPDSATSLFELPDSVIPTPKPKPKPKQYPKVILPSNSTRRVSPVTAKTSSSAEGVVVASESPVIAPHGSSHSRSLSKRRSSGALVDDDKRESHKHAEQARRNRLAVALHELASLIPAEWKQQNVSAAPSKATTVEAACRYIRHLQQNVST
# Test: relative binding free energy (BET-seq); higher = weaker binding
# Settings: reference: library average
row,Sequence,relative binding free energy
1,AGGTTCACGTGGAGAC,1.3 kJ/mol
2,GTCTGCACGTGTTGAA,0.837 kJ/mol
3,AAATTCACGTGTGTGG,0.837 kJ/mol
4,TGTCGCACGTGAGAGT,0.628 kJ/mol
5,CGGGTCACGTGGGGCA,-0.46 kJ/mol
6,AGGCGCACGTGGTGTT,-1 kJ/mol
7,TCGTTCACGTGGGAAA,1.05 kJ/mol
8,TTATTCACGTGGCATT,-0.167 kJ/mol
9,AGAATCACGTGTTGAG,0.92 kJ/mol
10,GGTCTCACGTGTTGGA,1.3 kJ/mol
11,GGGTGCACGTGTAAGG,0.753 kJ/mol
12,ACGTGCACGTGTGTTC,0.669 kJ/mol
13,TGTCGCACGTGTTTTT,-0.0837 kJ/mol
14,AGGTTCACGTGGGGGG,0.669 kJ/mol
15,TGTTACACGTGCTTAG,-0.0837 kJ/mol
16,GGGAGCACGTGCTTTG,-0.251 kJ/mol
17,GTTCCCACGTGGTGTG,-0.418 kJ/mol
18,TGGGACACGTGCGTAT,-0.126 kJ/mol
19,TAGTTCACGTGTGTTC,1.26 kJ/mol
20,GTTTTCACGTGCGGCG,1.09 kJ/mol
21,GGTGGCACGTGGATTA,0.126 kJ/mol
22,TAAAGCACGTGTGTGG,-0.628 kJ/mol
23,TGTTGCACGTGGCTGC,-0.837 kJ/mol

row,Sequence,relative binding free energy
1,TGGGTCACGTGTACTT,0.544 kJ/mol
2,GCTTACACGTGTGGCT,1.17 kJ/mol
3,ATATTCACGTGTCAGT,1.34 kJ/mol
4,AAAGTCACGTGATAGG,1.17 kJ/mol
5,TAAGGCACGTGTGAGA,-0.167 kJ/mol
6,GATATCACGTGTTGCG,0.795 kJ/mol
7,CTAGTCACGTGGGTCT,0.0418 kJ/mol
8,GGGTCCACGTGAGTGA,0.669 kJ/mol
9,GTGGCCACGTGCTGGG,-0.167 kJ/mol
10,AGGAGCACGTGGAGAT,0 kJ/mol
11,AATAACACGTGGGTAG,-0.46 kJ/mol
12,ATTGACACGTGTGGAA,-0.126 kJ/mol
13,CGGTGCACGTGGGGTC,-0.502 kJ/mol
14,TTGCTCACGTGGGGTG,0.377 kJ/mol
15,ATGTGCACGTGATGTT,0.418 kJ/mol
16,TGGCGCACGTGAAGTA,0.962 kJ/mol
17,TTCGGCACGTGTTAAA,0.167 kJ/mol
18,TCATACACGTGGGTTG,-1.21 kJ/mol
19,ATTTACACGTGGCTAG,0.209 kJ/mol
20,AATGTCACGTGGCGAT,0 kJ/mol
21,AAATGCACGTGTTGAT,-0.126 kJ/mol
22,CGTTGCACGTGCGGTG,-0.628 kJ/mol
23,ACGGACACGTGTTGTT,0.251 kJ/mol

row,Sequence,relative binding free energy
1,AAGAGCACGTGGGGGG,-1.05 kJ/mol
2,ACATTCACGTGCTGGG,0.92 kJ/mol
3,TAGAACACGTGTTGGG,-0.126 kJ/mol
4,TGGGGCACGTGCGGGA,-0.711 kJ/mol
5,TGACACACGTGGGTTG,-0.502 kJ/mol
6,AGGCTCACGTGTGGTC,0.837 kJ/mol
7,TTTGTCACGTGAGAGG,0.669 kJ/mol
8,TATGACACGTGGGGAG,-0.126 kJ/mol
9,CTGGGCACGTGTTGAC,0.293 kJ/mol
10,GTATGCACGTGATGGG,0.795 kJ/mol
11,GAGGTCACGTGATTAT,1 kJ/mol
12,TACGTCACGTGAGGAT,1.46 kJ/mol
13,GGCCGCACGTGGCTGG,-0.418 kJ/mol
14,TATGTCACGTGTGTAA,0.418 kJ/mol
15,GTAGTCACGTGTCGCG,1 kJ/mol
16,TGTAGCACGTGACATT,0.0837 kJ/mol
17,TGCTCCACGTGAGTGG,0.837 kJ/mol
18,TTTATCACGTGGTTCA,0.293 kJ/mol
19,TAGTTCACGTGAAAGG,0.879 kJ/mol
20,ATAATCACGTGTATGG,0.628 kJ/mol
21,TTTATCACGTGACTTG,0.879 kJ/mol
22,ACTGGCACGTGTTTGA,-0.418 kJ/mol
23,GGCTGCACGTGGTCGT,-0.335 kJ/mol

row,Sequence,relative binding free energy
1,GGACCCACGTGGGGGG,-1.42 kJ/mol
2,TTACGCACGTGTGTTA,-0.46 kJ/mol
3,CTTACCACGTGTGTGT,0 kJ/mol
4,TGGGTCACGTGATCGA,1.17 kJ/mol
5,GATAACACGTGCGGTG,0.251 kJ/mol
6,CGGTTCACGTGGAGAG,1 kJ/mol
7,TTAATCACGTGAGTTG,1.46 kJ/mol
8,TGAAACACGTGATTAT,1.38 kJ/mol
9,GTGAGCACGTGGGATA,-0.92 kJ/mol
10,GTTTACACGTGGACTG,0.46 kJ/mol
11,AATTACACGTGGGCGT,-0.126 kJ/mol
12,AGTGTCACGTGTGGAG,0.377 kJ/mol
13,GGTTCCACGTGATATG,0.92 kJ/mol
14,CATTTCACGTGTGAGC,1.97 kJ/mol
15,AAAGTCACGTGTTATA,-0.0837 kJ/mol
16,CGTGTCACGTGAAGTG,1 kJ/mol
17,GTAGGCACGTGAGTTT,0.753 kJ/mol
18,GTGTTCACGTGCGGGG,0.837 kJ/mol
19,TGTGTCACGTGTGTAC,0.251 kJ/mol
20,GGATGCACGTGTGAAG,0.209 kJ/mol
21,AGAGACACGTGGGTTG,-0.418 kJ/mol
22,ACTTGCACGTGTTTTT,0.377 kJ/mol
23,TGGTGCACGTGAAAGA,0.502 kJ/mol

row,Sequence,relative binding free energy
1,AGGACCACGTGAGTGG,0.293 kJ/mol
2,AATTTCACGTGAATTA,1.55 kJ/mol
3,TAGTTCACGTGGTGTC,0.711 kJ/mol
4,TATATCACGTGTCTAG,0.795 kJ/mol
5,TGCGGCACGTGGGCGC,-1.34 kJ/mol
6,CCTGTCACGTGTGGAG,0.377 kJ/mol
7,TGGCACACGTGGGGGT,0.0418 kJ/mol
8,TCTATCACGTGTTTGA,0.628 kJ/mol
9,GCTTGCACGTGATAGG,0.335 kJ/mol
10,TGCTTCACGTGTAGGC,0.669 kJ/mol
11,AGGTTCACGTGTCGAG,1.51 kJ/mol
12,GTGGTCACGTGGTTTA,0.544 kJ/mol
13,GGCAGCACGTGTAAGG,-0.0837 kJ/mol
14,TTTTACACGTGTCCTG,0.502 kJ/mol
15,CAATGCACGTGTTGTG,0 kJ/mol
16,TGGATCACGTGTTGCT,0.502 kJ/mol
17,TTAGGCACGTGTAATG,-0.586 kJ/mol
18,AATATCACGTGTGTAA,0.628 kJ/mol
19,CAAATCACGTGGAGGG,0.544 kJ/mol
20,AATTGCACGTGAAGGC,0.962 kJ/mol
21,TTTGACACGTGTATTG,0.293 kJ/mol
22,CAGTGCACGTGGGTCT,0.209 kJ/mol
23,TCTGGCACGTGGGGTC,-0.586 kJ/mol
